Data: the supplement of paper PMC3334620
The full ranking holds about 33,000 sequences; the median of “E-score (-0.5 to 0.5)” is about -0.032, and the highest 2% start at about 0.36. Some of the results follow.

molecular target: T1, Sko1 (UniProt Q02100); experiment: PBM E-score (8-mer binding enrichment) (E-score (-0.5 to 0.5)); higher = stronger / more preferred TF binding; most listed sequences are background and not binding sites; conditions: protein concentration: 200 nM; construct: GST-full length
T1 sequence: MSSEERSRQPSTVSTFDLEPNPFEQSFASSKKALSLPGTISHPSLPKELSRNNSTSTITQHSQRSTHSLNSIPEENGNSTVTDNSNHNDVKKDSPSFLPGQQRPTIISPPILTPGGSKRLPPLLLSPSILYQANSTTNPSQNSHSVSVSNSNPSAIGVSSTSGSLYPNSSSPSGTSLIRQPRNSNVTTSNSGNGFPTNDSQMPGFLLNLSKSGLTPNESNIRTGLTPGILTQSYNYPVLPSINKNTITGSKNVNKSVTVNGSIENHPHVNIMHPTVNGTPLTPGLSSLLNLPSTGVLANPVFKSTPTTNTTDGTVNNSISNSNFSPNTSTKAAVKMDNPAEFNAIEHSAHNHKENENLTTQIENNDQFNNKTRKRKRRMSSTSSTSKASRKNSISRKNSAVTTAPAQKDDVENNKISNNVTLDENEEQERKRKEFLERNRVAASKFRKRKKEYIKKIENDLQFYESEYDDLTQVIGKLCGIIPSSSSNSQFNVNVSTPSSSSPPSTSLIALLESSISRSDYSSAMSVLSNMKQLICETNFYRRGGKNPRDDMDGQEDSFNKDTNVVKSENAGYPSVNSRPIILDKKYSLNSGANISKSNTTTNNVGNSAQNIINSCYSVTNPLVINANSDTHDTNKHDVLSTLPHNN
How it was run: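 The E-score, a modified Wilcoxon-Mann-Whitney statistic, was computed by the Universal PBM Analysis Suite for every ungapped eight-base word pooled with its reverse complement. Scans behind it were normalised with masliner after bound GST-tagged yeast transcription factors were detected with fluorescent anti-GST. The proteins, at about 100-200 nM, had been applied to universal all-10-mer Agilent arrays made double-stranded by primer extension.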

| Sequence | PBM E-score |
| --- | --- |
| GTCAGGTA | 0.101 |
| GTATGTGA | 0.215 |
| CGTAAACA | 0.374 |
| ACACCCAG | -0.211 |
| TCCCTTCA | -0.0391 |
| AACATCGG | -0.109 |
| AATAAGGG | 0.0929 |
| CTATCCAA | -0.0885 |
| GGCACCTA | -0.254 |
| AGCATCTA | -0.0134 |
| CACATCGG | -0.173 |
| AAACATTG | 0.00049 |
| AGTAATTC | 0.169 |
| AGTCGAGC | -0.148 |
| AGAGAATA | -0.0362 |
| GTGCATTA | 0.253 |
| GCAGCCTA | -0.0705 |
| TGTATACA | 0.235 |
| CGAATCCA | -0.15 |
| ATTTAAGC | 0.207 |
| ACTTTGAC | 0.147 |
| ATGAAGCA | -0.0889 |
| ACTAGAAA | 0.197 |
| AACCCAAC | 0.0767 |
| GATTCCTA | -0.00139 |

| Sequence | PBM E-score |
| --- | --- |
| TAGTCCCA | -0.123 |
| CATTAGCG | 0.0166 |
| AGCGCATG | -0.187 |
| AGAGATGA | 0.169 |
| AGCAGAAA | 0.0567 |
| ATGCTCAG | -0.11 |
| CTCAATAC | 0.197 |
| GTTCATGA | 0.14 |
| CATTTTGC | 0.114 |
| CATCAACC | 0.16 |
| GGTCAACA | -0.04 |
| AACCAGCG | -0.0665 |
| AGGGATAC | -0.115 |
| GTTGCTGA | 0.126 |
| CCTTTTCC | -0.226 |
| ACAAACAC | 0.226 |
| CGCTACCA | -0.218 |
| AAACGAAC | 0.0425 |
| GGAGATGA | 0.0286 |
| TACGAGCA | 0.024 |
| GGTGATGA | 0.18 |
| CAACACCA | -0.0218 |
| CCGATGGA | -0.147 |
| GAAGACAC | 0.114 |
| CGTTTAAA | 0.277 |

| Sequence | PBM E-score |
| --- | --- |
| AATGCACG | 0.302 |
| CAGTTTAC | 0.132 |
| AGTTTAGC | -0.114 |
| GACCTCGC | -0.122 |
| CAAAATCC | 0.0611 |
| ATAACCAA | 0.136 |
| ATAATCCC | -0.0805 |
| AAGTCACG | 0.126 |
| AGCCACAA | -0.106 |
| GCAACCGA | -0.129 |
| GGATGTGA | -0.191 |
| AATAGTGG | -0.0108 |
| TCTAAGCA | 0.0417 |
| AAAAATCT | 0.143 |
| GGAATTCC | -0.296 |
| AGAGTTAA | 0.0436 |
| CGGTCGGC | -0.416 |
| AACGAGGA | -0.00299 |
| GAACCCGC | -0.23 |
| CGAAGTTC | -0.0101 |
| AACTTGCC | -0.0206 |
| AACCCGTG | -0.216 |
| GAACTCGA | 0.0384 |
| CACCAATG | 0.00918 |
| AGAAAAGA | 0.0187 |

| Sequence | PBM E-score |
| --- | --- |
| AGAGTCGG | -0.157 |
| TCTACGCA | 0.32 |
| GGTCTTTA | 0.00742 |
| ATGCGAAC | 0.0655 |
| AATCGAGA | 0.119 |
| ATCGTTAG | 0.0767 |
| CATTTACG | 0.369 |
| AACCTGCT | -0.0612 |
| CCGCGCTC | -0.118 |
| AGAATTAG | -0.012 |
| ATGCCTAC | -0.249 |
| GTTTGTCA | 0.122 |
| TGAAGCAA | -0.0667 |
| CCTGACTA | 0.0618 |
| ATAATCTC | 0.143 |
| ATCCCGAC | -0.0708 |
| ATTGGTAG | -0.0367 |
| AAAAGCAA | 0.0963 |
| GCCGTAGA | -0.126 |
| GGTAAGTA | 0.0153 |
| ACAAGACA | 0.0553 |
| ACCGATAC | -0.053 |
| AGGGGCAG | -0.291 |
| AATAGCAA | 0.132 |
| CGTAGTAG | 0.309 |

| Sequence | PBM E-score |
| --- | --- |
| ATTTCGAG | 0.138 |
| ATACGGAG | -0.018 |
| GCTTCTTA | 0.0735 |
| GAATCGCA | -0.0842 |
| CGTAGCGC | 0.11 |
| ATGCGTTA | 0.247 |
| CTAGTTCC | -0.00523 |
| CTCCAAAC | -0.0765 |
| CACGTTTA | 0.321 |
| CTCACCTA | -0.0336 |
| GTGAACCA | 0.0754 |
| TACTCCTA | -0.022 |
| GGTGTGCA | -0.117 |
| AGGTCCCA | -0.0642 |
| CCAGGTGC | -0.141 |
| AGTAGGTC | -0.0186 |
| CGGGGGAA | -0.318 |
| AGTAGGAA | -0.0265 |
| ACCTAGAC | -0.00777 |
| CAGGTCCG | -0.267 |
| AGCTTAGG | -0.198 |
| CCGGTCCA | -0.385 |
| GACAGTTA | -0.13 |
| AGATCACG | 0.237 |
| AGAACTGC | -0.0612 |

| Sequence | PBM E-score |
| --- | --- |
| TCCGCGAA | -0.0984 |
| CGACTAAA | 0.0341 |
| AGCACAGG | -0.179 |
| TCACTAAA | 0.136 |
| ATCACGAA | 0.162 |
| AAATAAAG | -0.0497 |
| ACCTCGAT | -0.16 |
| AAGACAGG | -0.144 |
| CTTTATGA | 0.128 |
| GAGAGTCC | -0.26 |
| AAAAGCGG | -0.214 |
| AATTGTAG | 0.15 |
| CCGCGAAG | -0.271 |
| AGTGTCCA | 0.00039 |
| CGACGCCA | 0.174 |
| AAACGGAT | 0.134 |
| GCCGAATA | -0.0896 |
| GCACTTAA | 0.109 |
| ACCTGACT | -0.0826 |
| CCGTCTAC | 0.0306 |
| CTTTCAAA | 0.185 |
| ATTGCTCG | -0.0663 |
| CCGAGGCA | -0.263 |
| CACGCCTC | -0.0948 |
| ACGCAGTC | 0.155 |

| Sequence | PBM E-score |
| --- | --- |
| GGCTACGA | 0.127 |
| AGGACCCA | -0.242 |
| CCATGCGC | -0.248 |
| AATTGGAC | -0.0273 |
| CCTAGTAA | -0.21 |
| AATGTACA | 0.273 |
| CATCATCC | 0.257 |
| CAGAATCA | 0.16 |
| GGTGCACC | -0.207 |
| AACTATAG | -0.111 |
| CTCGACCA | -0.36 |
| GTTCTTAA | 0.0342 |
| CTTTCTGC | -0.0825 |
| CTTAATCC | -0.16 |
| CATCGGTA | -0.0845 |
| GCAGTCCC | -0.188 |
| GGGGTGAA | -0.168 |
| ATTGGTGG | -0.0357 |
| ACGTACAT | 0.449 |
| GTCATAGA | 0.406 |
| CCGTGAAG | -0.144 |
| AATGATCA | 0.0979 |
